The record followed here is PubChem BioAssay AID488969 (Vanderbilt High Throughput Screening Facility, 2010).

Over roughly 110,000 compounds, “z-score” has its median near -0.1; the highest 2% begin near 2. The list shows a part of the results.

For the test, the target named is Metabotropic glutamate receptor 8 (Rattus norvegicus) (UniProt P70579). Briefly: mGluR8 Gi/Go-coupled signaling modulation – cell-based, rat, thallium flux, HTS, primary screen (AID 488969). Particulars: HEK293 rat mGluR8, GIRK (G protein-gated inwardly rectifying potassium channel) thallium flux, FluoZin2; at 10 µM; stronger effect = higher value; submaximal glutamate (EC20) added with thallium.
Sequence of UniProt P70579 (P70579 whole entry, looked up): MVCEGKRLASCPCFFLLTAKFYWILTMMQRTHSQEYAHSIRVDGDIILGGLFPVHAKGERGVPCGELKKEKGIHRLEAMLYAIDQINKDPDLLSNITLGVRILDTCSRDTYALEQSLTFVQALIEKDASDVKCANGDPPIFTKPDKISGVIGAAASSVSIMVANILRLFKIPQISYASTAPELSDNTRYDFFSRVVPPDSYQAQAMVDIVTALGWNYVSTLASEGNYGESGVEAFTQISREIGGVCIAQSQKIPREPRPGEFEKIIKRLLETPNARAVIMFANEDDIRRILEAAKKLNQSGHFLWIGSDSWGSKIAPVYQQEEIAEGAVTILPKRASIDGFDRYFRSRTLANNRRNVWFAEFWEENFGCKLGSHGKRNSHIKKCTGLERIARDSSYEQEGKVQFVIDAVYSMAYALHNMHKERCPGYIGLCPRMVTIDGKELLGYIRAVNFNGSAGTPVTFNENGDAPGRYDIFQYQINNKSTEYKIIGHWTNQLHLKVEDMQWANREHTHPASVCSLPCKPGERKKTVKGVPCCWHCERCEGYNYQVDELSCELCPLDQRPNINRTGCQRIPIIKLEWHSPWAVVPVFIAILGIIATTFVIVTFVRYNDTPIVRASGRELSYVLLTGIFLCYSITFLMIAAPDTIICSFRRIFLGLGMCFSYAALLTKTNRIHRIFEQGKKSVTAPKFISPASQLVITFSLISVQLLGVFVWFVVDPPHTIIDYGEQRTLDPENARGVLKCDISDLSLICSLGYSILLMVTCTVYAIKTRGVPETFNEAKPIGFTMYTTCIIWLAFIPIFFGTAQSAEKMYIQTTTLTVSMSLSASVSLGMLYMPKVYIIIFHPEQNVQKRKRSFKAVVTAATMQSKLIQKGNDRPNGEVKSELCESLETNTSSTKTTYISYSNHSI
`CC(C)Cc1nnc(NC(=O)CCC(=O)N2CCOCC2)s1` returned a z-score of 0.362.

In the case of `COCCCNC(=O)c1ccc2c(=O)n(Cc3ccc4c(c3)OCO4)c(=S)[nH]c2c1`, the z-score was -0.0433.

The compound `Cc1ccc(S(=O)(=O)N2CCN(c3ccc([N+](=O)[O-])c(NCCN4CCOCC4)c3)CC2)cc1` registered a z-score of 0.104.

On to `Cc1c(C#N)c(NC(=O)c2ccccc2)n(Cc2ccccc2)c1C`, for which the z-score is -0.149.

On to `O=c1c2ccccc2ncn1C1CCCCC1`, for which the z-score is -0.102.

`COc1cccc(NC(=O)Cn2c(=O)oc3ccccc32)c1` came in with a z-score of 0.18.

In turn, `CC(=O)Nc1ccc(OC/C=C(\C)Cl)cc1` showed a z-score of -0.678.

In turn, `CCc1nnc(NC(=O)C(C)Sc2ccccc2)s1` (configuration not stated) yielded a z-score of 0.00353.

Compound `Cn1ncc2c(NNC(=O)Cc3ccccc3)ncnc21` had a z-score of -0.137.

`CCCc1nc(-c2ccc(-c3ccc(F)cc3)cc2)no1`: the z-score amounted to 0.218.

Consider `Cc1cc(C(=O)CSc2nc3ccccc3o2)c(C)n1CC1CCCO1` (configuration not stated), for which the z-score is -0.415.

`CCNC(=S)NNC(=O)c1cc(C2CC2)nc2ccccc12` yielded a z-score of -0.145.

On to `CCOc1cc(-n2nc(C)c(C#N)c2N)nc(SC)n1`, for which the z-score was 0.00516.

Turning to `COc1ccc(/C=C2\C(=O)N(c3nc(-c4ccc(Br)cc4)cs3)N=C2c2ccccc2)cc1`, the z-score was -0.114.

With `COc1ccc2nc(C)cc(N3CC(C)OC(C)C3)c2c1` (configuration not stated), the z-score is -0.169.

With `CCCCN(C)C(=O)C1CCC(=O)N(c2cc(OC)c(OC)c(OC)c2)C1c1ccc(OC)cc1` (configuration not stated), the z-score stood at 0.102.

`CCOc1cc(C#N)c(NC(=O)c2ccco2)cc1OCC`: the z-score was 0.407.

In turn, `COc1ccc(C(=O)N(Cc2nc(-c3ccc(C)cc3)no2)C2CCCCC2)cc1OC` registered a z-score of -0.367.

Take `COc1ccc(C)cc1NC(=O)c1ccc(N(C)S(C)(=O)=O)cc1`: the z-score turned out to be 0.563.

For the compound `CC1(C)Cc2c(sc3c2C(=O)N(c2ccccc2)C2=NCCN23)CS1`, the z-score was -0.646.

As for `CC(=O)C1C(c2cccc(F)c2)NC(=O)NC1(O)C(F)(F)F` (configuration not stated), the z-score was -0.2.

For the compound `CSc1nnc(CSCc2ccc(Cl)cc2Cl)n1-c1ccccc1`, the z-score was -0.0778.

`COc1ccccc1N1CCN(CCOc2c(OC)cccc2OC)CC1` registered a z-score of -0.206.

`CS(=O)(=O)Nc1ccc(C(=O)NC2CC3CCC2C3)cc1` (configuration not stated): the z-score was -0.309.

As to `CC1(C)Oc2nc3ccccc3n2/C1=C\C#N`, the z-score is -0.233.

`Cc1nn2c3ccccc3nc2n(Cc2ccccc2)c1=O` showed a z-score of -0.111.

Regarding `C=CCc1cc(/C=N/NC(=O)CSc2nnc(CCCc3ccc(OC)cc3)o2)cc(OC)c1O`, the z-score was -0.132.

As to `CCc1nnc(NC(=O)c2nc3nccc(C)n3n2)s1`, the z-score came out at 0.924.

Compound `CCOc1ccc2nc(NC(=O)CSc3ccc(Cl)cc3)sc2c1` returned a z-score of 0.25.

As to `O=C(NCCN1CCOCC1)c1csc2c1CCCCC2`, the z-score is -0.0192.

For the compound `CCNC(=S)N/N=C(\C)c1ccc(N2CCOCC2)cc1`, the z-score came to 0.245.

As for `O=C(O)CCCC(=O)Nc1ccc(C(=O)N2CCCCC2)c(Cl)c1`, the z-score was -0.358.
